B1: LINE1-mini (parent)
chain: GGCAGAGCUCAACACAGCGUGGCAAAGUGGCUGUGGCUAGACUGCC

Read counts are not given, so values of variants with three or more changes are uncertain.

In the data set the parent is B1. As to the kind of experiment: self-cleavage, relative activity (ratio to wild type); higher = more cleavage; in vitro, sequencing; the parent is a self-cleaving ribozyme.
For the variant C8U U9C C10A G19U G36A, the self-cleavage was determined as 0.

For C8U C15U G21A C31A G44A, the self-cleavage amounted to 0.3.

As to C8U G19U G21C G36U C42U, the self-cleavage is 0.03.

With C8U A14C G22C G29A, the self-cleavage worked out at 0.07.

On to U9C A24G G33U, for which the self-cleavage came out at 0.

For the variant C8U C15A A24C G30A C37A, the self-cleavage stood at 0.01.

Regarding U9A C10U C13U, the self-cleavage was determined as 0.12.

As to U9A G22C C31U, the self-cleavage came out at 0.02.

On to C8U G19C C42U, for which the self-cleavage worked out at 0.02.

U9A G35U A39C G44U: the self-cleavage is 0.01.

As to U9C A12U G21A, the self-cleavage was 0.03.

As for C8U C18U C31U, the self-cleavage came to 0.07.

Regarding U9A A12C U20A G22C, the self-cleavage worked out at 0.01.

With U9A C15U G19C U38C, the self-cleavage was found to be 0.32.

On to U9C A12G A16G G17U C31U, for which the self-cleavage is 0.01.

Turning to U9A A26C U28G, the self-cleavage was 0.08.

U9A C13U A16G G36A C37A A41U: the self-cleavage worked out at 0.01.

As to C8U C18G G22C A26C, the self-cleavage is 0.28.

For C8U G29A G33A, the self-cleavage was determined as 0.07.

Take U9A A14U C45A: the self-cleavage was found to be 0.23.

In the case of U9A G29C G30U A41U, the self-cleavage was determined as 0.04.

Take C8U A26C U34C A39G C45A: the self-cleavage came out at 0.08.

Consider U9A A14U C15U A16C G17A, for which the self-cleavage amounted to 0.02.

As to C8U C13U C23U G40A, the self-cleavage amounted to 0.01.

Consider U9A A12C G21U G22C A24U C31A A41G G44A, for which the self-cleavage turned out to be 0.01.

C8U A14C G33A: the self-cleavage is 0.08.

C8U C10A U38G: the self-cleavage was determined as 0.03.

In the case of C8U U32A U34A G44C, the self-cleavage came to 0.03.

As to U9A A24C A25G U28C G30A G44U, the self-cleavage is 0.03.

With C8U C37A G44C C45U, the self-cleavage turned out to be 0.01.

Consider U9A A11G A16U G36U, for which the self-cleavage was found to be 0.02.

Take C8U C23G G40U: the self-cleavage turned out to be 0.05.

As for C8U C10G G44U, the self-cleavage was determined as 0.03.

As for U9A C10A C42A, the self-cleavage was 0.

For C8U G29C A41U, the self-cleavage came to 0.25.

As to C8U C15U G22C C37U U38C, the self-cleavage is 0.19.

C8U C13A U28A C37U C45U: the self-cleavage is 0.34.

In the case of U9A C10U G44U, the self-cleavage was 0.11.

C8U G29C G35A: the self-cleavage is 0.08.

C8U C10U U28G: the self-cleavage was determined as 0.01.

As for C8U A11U U28G, the self-cleavage amounted to 0.03.

With C8U C18A A24U C42A, the self-cleavage came out at 0.13.

Regarding C8U U9A G22A G30C G35A G36A C37A, the self-cleavage was 0.05.

Consider U9C A11U G33U C42G, for which the self-cleavage turned out to be 0.01.

U9C C10A A24U: the self-cleavage was 0.02.

Consider C8U A25G U28A, for which the self-cleavage was found to be 0.02.

Take C8U A26U U32C G35U: the self-cleavage came to 0.22.

Turning to U9A A12U U20G, the self-cleavage is 0.02.

U9A G21U G22C U43A: the self-cleavage is 0.11.

Take U9A A12C G17A G19U A26U U28A: the self-cleavage worked out at 0.01.

For U9A G17C G33A, the self-cleavage was determined as 0.05.

Consider C8U A14U U20A A24C, for which the self-cleavage came to 0.04.

On to C8U G17U C18G A26U C31U U38G G40U, for which the self-cleavage was found to be 0.02.

Take C8U G22A C23G C42U: the self-cleavage is 0.19.

Regarding C8U C15A G17A U43C, the self-cleavage came to 0.27.

In the case of C8U C10U A41C, the self-cleavage is 0.1.

U9C C13G G22A U32A G35A: the self-cleavage was found to be 0.02.

U9C A11U C46U: the self-cleavage was 0.

C8U C10A G27U C37U: the self-cleavage was determined as 0.02.

As for C8U G19A C45G, the self-cleavage came out at 0.06.

Turning to U9A G29A G35U U38A, the self-cleavage is 0.21.

With U9C C10U G17A U20A C31A, the self-cleavage worked out at 0.01.

Regarding C8U G30C U32C, the self-cleavage stood at 0.04.

As for U9A C13G A24U G30A G35A, the self-cleavage worked out at 0.04.

As for C8U C42A C45U, the self-cleavage was determined as 0.01.

Turning to C8U G19U G22A A24G A26U G27A G40U, the self-cleavage worked out at 0.05.

Take U9A A24C A41U C42G: the self-cleavage was 0.16.

On to U9A G22C A26G U32C A39C, for which the self-cleavage is 0.04.

Consider U9A C23A C31U, for which the self-cleavage turned out to be 0.04.

Take C8U C15U A16C U32A: the self-cleavage came out at 0.01.

C8U C15A G17C A26G G27U G30C: the self-cleavage was determined as 0.02.

As to U9C A16U G17C G22C G27A U32G G44U, the self-cleavage came out at 0.

In the case of C8U A12G C23U C42U U43A G44C, the self-cleavage was 0.02.

For the variant C8U C15A U43A, the self-cleavage came to 0.21.

Take U9A C10U C18U G19C G29U: the self-cleavage was 0.07.

As for U9C C10A U34A, the self-cleavage is 0.01.

For the variant C8U C18A A26U G35U G40A, the self-cleavage was 0.02.

Regarding C8U C10U G30U U38G, the self-cleavage came to 0.09.

With C8U U20C G33A A41C C46G, the self-cleavage was 0.12.

Consider U9C C10G C13A, for which the self-cleavage was found to be 0.02.

Take C8U G19A G29U G33A: the self-cleavage is 0.62.

Take U9A G30C A41G C45G: the self-cleavage came out at 0.16.

Turning to U9A C15A A26C U28A, the self-cleavage amounted to 0.04.

Take U9A U34C G35U: the self-cleavage was determined as 0.03.

As for C8U U20C C23A A39C, the self-cleavage was determined as 0.01.

Take U9C A14C G22A A25G: the self-cleavage is 0.01.

Regarding C8U C31G A39C, the self-cleavage stood at 0.49.

With C8U A14U G21U A25G C31U, the self-cleavage was 0.18.

Turning to U9C A12U C15G U38C, the self-cleavage amounted to 0.01.

With U9A A12C C23G C42A C45A, the self-cleavage amounted to 0.

As to U9A G27A G44A, the self-cleavage amounted to 0.33.

Take U9A A11U C13A G29U A39U C42G: the self-cleavage stood at 0.02.

For C8U C13A A41C, the self-cleavage came out at 0.21.

As for C8U C13A A41G, the self-cleavage was 0.12.

Take U9A C13U A16U G27A: the self-cleavage is 0.1.

For C8U G40C C46G, the self-cleavage is 0.16.

For U9C A26U C45U C46G, the self-cleavage is 0.01.

Turning to C8U G17A G33U U38C, the self-cleavage was 0.03.

Take U9A G22U C45U: the self-cleavage worked out at 0.34.

Regarding C8U G29U G30C C31U, the self-cleavage came to 1.1.

On to C8U G35C A39U, for which the self-cleavage turned out to be 0.02.

Regarding U9A G21U G44A, the self-cleavage is 0.16.

With C8U U9C A26C G35A, the self-cleavage worked out at 0.04.

Consider U9A C10U U28C, for which the self-cleavage was 0.02.

Turning to U9C C13U A14G G27A, the self-cleavage is 0.02.

Consider C8U U9C C15G, for which the self-cleavage came to 0.05.

Consider U9A G22A G33U C46G, for which the self-cleavage was determined as 0.08.

Consider C8U A16G C23G G30A, for which the self-cleavage stood at 0.08.

Consider C8U G17C C42A C45A, for which the self-cleavage amounted to 0.06.

On to U9A C18G G36U C37G, for which the self-cleavage stood at 0.07.

Turning to U9A G19U A24U, the self-cleavage was found to be 0.04.

Regarding U9A G19C U20A G30C U43G G44A, the self-cleavage was found to be 0.44.

For the variant C8U C18G C37U C45A, the self-cleavage was 0.04.

With C8U C15G C42G G44C, the self-cleavage was 0.11.

In the case of U9A G21C A26G, the self-cleavage stood at 0.04.

Turning to C8U G19A G35A, the self-cleavage stood at 0.31.

Turning to U9A C10U G35A C37G C45U, the self-cleavage came to 0.1.

Consider C8U C13A A24C, for which the self-cleavage is 0.1.

As for C8U G17U U32A, the self-cleavage was determined as 0.1.

In the case of U9A G17A A26U U28C G30A, the self-cleavage is 0.25.

Take U9A A26C G27C U32G: the self-cleavage came out at 0.03.

As to U9C C13U A39C, the self-cleavage was 0.01.

As to U9A G19U A41U, the self-cleavage was determined as 0.08.

Consider U9A A16G G44U, for which the self-cleavage is 0.03.

Turning to C8U G35C C46U, the self-cleavage was 0.34.

Consider C8U C10A A11U G19C C23A, for which the self-cleavage stood at 0.02.

Consider C8U C15A U28G, for which the self-cleavage stood at 0.44.

In the case of U9A A16U C23A G30U A41C, the self-cleavage is 0.03.

As to U9A A12C C13U G33U A41G, the self-cleavage turned out to be 0.

Turning to U9A G19U U20G, the self-cleavage is 0.23.

Turning to U9A C15G G21A C23A U32G U34G A41U, the self-cleavage was 0.03.

On to U9A C15G G30C, for which the self-cleavage is 0.08.

With U9A C10U U38C, the self-cleavage was found to be 0.15.

As for C8U G22A G36U A41C C46U, the self-cleavage was 0.05.

U9A A12G A26G C31A G33C: the self-cleavage turned out to be 0.03.

For the variant U9C C13G C23G, the self-cleavage is 0.03.

Consider C8U A14U G27C G29U U43A, for which the self-cleavage stood at 0.02.

U9A C13A U43C: the self-cleavage is 0.21.

For the variant C8U C15U C18A C31A U38G G40U, the self-cleavage amounted to 0.06.

Regarding C8U C15U G21U, the self-cleavage was 0.25.

With U9A C10G G17A C45A, the self-cleavage turned out to be 0.04.

Consider C8U C10U G21U, for which the self-cleavage amounted to 0.02.

In the case of U9C C10A G36A A39G, the self-cleavage was 0.03.

For the variant U9A G19C A26C G33U C45G, the self-cleavage is 0.16.

As for U9A A12C G29A, the self-cleavage is 0.

Consider C8U C13A A25G, for which the self-cleavage was determined as 0.13.

Turning to U9A G22U G35A, the self-cleavage turned out to be 0.19.

Turning to C8U A12U G21U, the self-cleavage was 0.35.

As to C8U G22C G27U, the self-cleavage stood at 0.26.

Regarding U9C C10G U20G G21U G27A, the self-cleavage was determined as 0.02.

Regarding U9A C13A G33U G44C C46U, the self-cleavage amounted to 0.02.

Turning to C8U A12C G22A, the self-cleavage stood at 0.03.

Regarding U9A G30U G44A, the self-cleavage turned out to be 0.07.

Turning to U9A C13G G22U, the self-cleavage was 0.06.

As for U9C A11C G21U C31U, the self-cleavage is 0.03.

Consider C8U G27A G29C C31G U38C, for which the self-cleavage stood at 0.03.

On to C8U U9G A25G G30A U38G, for which the self-cleavage was 0.78.

As for U9C C10U A11G, the self-cleavage stood at 0.03.

As for U9A A16U A41G, the self-cleavage stood at 0.03.

For U9A G19C G27C U28G G40A, the self-cleavage was 0.01.

For C8U C10G U32C U38C A41U, the self-cleavage was determined as 0.01.

C8U U32G G33C A41C: the self-cleavage stood at 0.01.

Take C8U C37A U38A: the self-cleavage stood at 0.11.

As to C8U A25U U28G U32A A39C, the self-cleavage amounted to 0.13.

In the case of C8U C31A G35U A41C, the self-cleavage was 0.06.

U9A G17A U38A: the self-cleavage worked out at 0.08.

As for C8U A14U G36C, the self-cleavage stood at 0.05.
